Target: FITC-labelled SARS-CoV-2 N wt peptide 12-26 (SARS-CoV-2)
Assay: fluorescence polarisation

In the case of “G3BP1 NTF2-like domain (a stretch of the chain, letters omitted) (domain or fragment; FITC on the N-terminus; other documents disagree on this pair)”, the Kd is reported as 1300 nM.
